Experimental data published in the supplement of paper PMC4723716.
± gives the uncertainty stated by the source. In all, about 9,900 compounds were measured (“viability index relative to DMSO control”: median about 1, lowest 2% from about 0.85 on). This is one part of the list.

Tested on: Plasmodium falciparum NF54 stage V gametocytes
Assay: viability index relative to DMSO control (fraction); higher = less gametocyte killing
Settings: 2.5 µM, incubation time: 72 h
Summary of the method: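 Gametocytes (P. falciparum NF54, stage V) were treated with compound at 2.5 µM for 72 hr at 37°C in low oxygen, in serum-free medium at 0.75% gametocytemia and 1.25% hematocrit. Counts of 20–70 µm2 red particles, taken from one field per well after MitoTracker Red CMXRos with saponin, were divided by the plate mean of solvent-only wells. This ratio is the viability index.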

[1] = library set: Broad Institute DOS
[2] = library set: Broad Institute Blood Stage

| SMILES | viability index [1] | viability index [2] |
| --- | --- | --- |
| COc1cccc(-c2ccc3c(c2)[C@@H]2[C@@H](CCN2C(=O)c2ccccc2F)[C@H](CO)N3C)c1 | 0.878 ± 0.1 |  |
| CNC(=O)C[C@@H]1CC[C@H]2[C@@H](COc3ccc(NS(=O)(=O)c4ccc(F)cc4)cc3C(=O)N2C)O1 | 0.925 ± 0.093 |  |
| CCCC#Cc1ccc([C@H]2[C@@H](CO)N3C(=O)CN(C(=O)c4cccnc4)C[C@@H]23)cc1 | 1.024 ± 0.0042 |  |
| COc1ccc(NC(=O)N(C)C[C@@H]2OCc3cnnn3CCCC(=O)N([C@H](C)CO)C[C@@H]2C)c(OC)c1 | 1.05 ± 0.062 |  |
| C(=C\c1ccc([C@H]2[C@H]3CNC[C@@H]2N3Cc2nccs2)cc1)/c1ccccc1 | 1.02 ± 0.0043 |  |
| COc1ccccc1C(=O)Nc1ccc2c(c1)C(=O)N(C)C[C@@H](OC)[C@@H](C)CN(C(C)=O)[C@H](C)CO2 | 1.11 ± 0.021 |  |
| C[C@@H]1CN([C@@H](C)CO)C(=O)c2cccc(NC(=O)NC3CCCCC3)c2O[C@H]1CN(C)Cc1ccc(C(F)(F)F)cc1 | 0.934 ± 0.059 |  |
| CO[C@H]1CN(C)C(=O)c2cc(NC(=O)C3CC3)ccc2OC[C@H](C)N(Cc2cc(F)ccc2F)C[C@@H]1C | 0.984 ± 0.034 |  |
| O=C(NCC1CC1)[C@H]1[C@H](CO)[C@H]2Cn3c(ccc(-c4cccnc4)c3=O)[C@H]2N1Cc1cocn1 | 1.04 ± 0.032 |  |
| CN1CCN(C(=O)C[C@@H]2CC[C@@H]3[C@H](COC[C@@H](O)CN3C(=O)c3ccccc3F)O2)CC1 | 1.014 ± 0.0032 |  |
| C[C@@H]1CN([C@@H](C)CO)C(=O)c2cc(NS(=O)(=O)c3cn(C)cn3)ccc2O[C@@H](C)CCCCO[C@H]1CN(C)Cc1ccc2c(c1)OCO2 | 1.06 ± 0.092 |  |
| CNC[C@H]1OCCCC[C@H](C)Oc2ccc(NS(=O)(=O)c3ccc(F)cc3)cc2C(=O)N([C@H](C)CO)C[C@H]1C | 0.966 ± 0.11 |  |
| O=C(Cc1cccnc1)N1CC(=O)N2[C@H](C1)[C@H](c1ccc(C#CC3CCCCC3)cc1)[C@@H]2CO | 0.925 ± 0.034 |  |
| C/C=C/c1ccc([C@H]2[C@@H](CO)N(C(C)=O)C23CN(C(=O)NC2CCCCC2)C3)cc1 | 1.03 ± 0.078 |  |
| O=C(N[C@@H]1C=C[C@@H](CC(=O)N2CCC(Cc3ccccc3)CC2)O[C@@H]1CO)c1cnccn1 | 0.9641 ± 0.0034 |  |
| C[C@H](CO)N1C[C@H](C)[C@@H](CN(C)C(=O)[C@@H](Cc2ccccc2)N(C)C)OCc2ccccc2-c2c(n(C)c3ccccc23)C1=O | 1.01 ± 0.15 |  |
| CC(C)(C)[S@](=O)N1Cc2cc(C(=O)N[C@H]3CCN(Cc4ccccc4)C3)nc(-c3cccc(-c4cccnc4)c3)c2[C@@H]1CCO | 1.12 ± 0.13 |  |
| CO[C@H](CN(C)S(=O)(=O)c1ccc(F)cc1)[C@H](C)CN(Cc1ccccc1Cl)[C@H](C)CO | 1.02 ± 0.04 |  |
| CCS(=O)(=O)NCC[C@H]1CC[C@@H](NS(=O)(=O)c2ccccc2C)[C@@H](CO)O1 | 0.9036 ± 0.004 |  |
| COc1ccc(cc1)S(=O)(=O)N1C[C@@]2(C1)CN([C@@H](CO)c1c2c2ccc(OC)cc2n1C)C(=O)CN(C)C | 0.95 ± 0.059 |  |
| C[C@H](CO)N1C[C@H](C)[C@H](CN(C)S(=O)(=O)c2cn(C)cn2)Oc2cc(C#Cc3cccc(F)c3)ccc2S1(=O)=O | 0.9878 ± 0.0014 |  |
| CNC[C@H]1OCCCC[C@@H](C)Oc2ccc(N)cc2C(=O)N([C@@H](C)CO)C[C@H]1C | 1.08 ± 0.018 |  |
| CCS(=O)(=O)N1[C@H](C#N)[C@@H](c2ccc(C#Cc3ccccc3F)cc2)[C@@H]1CO | 1.04 ± 0.019 |  |
| CCCNC(=O)N1[C@@H]2c3ccc(-c4ccc(OC)cc4)c(=O)n3C[C@H]1[C@H](CO)[C@H]2C(=O)NC1CCC1 | 1.06 ± 0.013 |  |

| SMILES | viability index [1] | viability index [2] |
| --- | --- | --- |
| O=C1CCC(=O)N[C@H](c2ccccc2)C/C=C\CCN1 | 1.05 ± 0.044 |  |
| OC[C@H]1Nc2ccc(-c3cccc(F)c3)cc2[C@@H]2[C@H]1CCN2Cc1ccc(F)cc1 | 1.04 ± 0.017 |  |
| COCC(=O)N1CC[C@@]2(CC1)CN([C@H](CO)c1[nH]c3cc(OC)ccc3c21)S(C)(=O)=O | 0.932 ± 0.053 |  |
| CCS(=O)(=O)N1CC[C@@]2(CC1)CN[C@@H](CO)c1c2c2ccc(OC)cc2n1C | 0.978 ± 0.034 |  |
| COc1ccc2c3c([C@H](CO)N(C[C@]33CCN(Cc4cccc(F)c4)CC3)C(=O)C3CC3)n(C)c2c1 | 1.02 ± 0.0091 |  |
| N#C[C@H]1[C@@H](c2ccc(-c3cccc(F)c3)cc2)[C@H](CO)N1C(=O)CN1CCOCC1 | 1.08 ± 0.032 |  |
| COc1ccccc1CN1[C@@H]2Cn3c(ccc(C4=CCCC4)c3=O)[C@H]1[C@@H](C(=O)N(C)C)[C@@H]2CO | 1.1 ± 0.023 |  |
| Cc1cccc(S(=O)(=O)N2C[C@H]3[C@@H](c4ccccc42)[C@H](CO)N3Cc2ccc3c(c2)OCO3)c1 | 1.01 ± 0.012 |  |
| O=C(C[C@@H]1CC[C@H]2[C@@H](COC[C@H](O)CN2C(=O)Nc2ccc(F)cc2)O1)NC1CCC1 | 0.971 ± 0.012 |  |
| COc1cccc(-c2ccc3c(c2)[C@@H]2[C@@H](CCN2S(=O)(=O)C2=NC(C)C=N2)[C@H](CO)N3C)c1 (some centres not stated) | 0.982 ± 0.024 |  |
| C[C@@H]1CN([C@H](C)CO)C(=O)c2cccc(NC(=O)c3ccncc3)c2O[C@H]1CN(C)Cc1ccc2c(c1)OCO2 | 0.966 ± 0.042 |  |
| C[C@@H]1CN([C@H](C)CO)C(=O)c2ccccc2-c2ccccc2CO[C@H]1CN(C)C(=O)[C@@H]1CCCN1C | 1.03 ± 0.03 |  |
| CN(C)C(=O)c1cccc(-c2ccccc2[C@@H]2[C@@H](CO)N(C(=O)C3CCCCC3)[C@H]2C#N)c1 | 1.15 ± 0.1 |  |
| CO[C@H](CN(C)C(=O)C1CCOCC1)[C@H](C)CN(C(=O)Nc1ccc(C(F)(F)F)cc1)[C@H](C)CO | 0.968 ± 0.034 |  |
| CN1C(=O)c2cc(NS(=O)(=O)c3cccc(F)c3)ccc2OC[C@H]2O[C@H](CC(=O)N3CCc4ccccc4C3)CC[C@@H]21 | 0.9956 ± 0.0048 |  |
| COc1ccc(C[C@@H]2CCn3nncc3COC[C@H](CC(C)C)NC2=O)cc1 | 1.04 ± 0.016 |  |
| Cc1ccccc1-c1ccc2c(c1)O[C@@H](CN(C)C(=O)Nc1ccc(C(F)(F)F)cc1)[C@@H](C)CN([C@@H](C)CO)S2(=O)=O | 0.838 ± 0.12 |  |
| COc1cccc(-c2ccc([C@@H]3[C@@H](CO)N4C(=O)CN(C(=O)c5cccnc5)C[C@H]34)cc2)c1 | 0.985 ± 0.039 |  |
| CC(C)[C@H]1C/C=C\CCNC(=O)[C@H](C)CC(=O)N1 | 1.025 ± 0.0092 |  |
| CC(C)NC(=O)N1CC2(C1)[C@H](c1ccccc1)[C@@H](CO)N2C(=O)C1CCOCC1 | 1.07 ± 0.11 |  |
| CCC(=O)N1[C@@H](C#N)[C@H](c2ccccc2-c2ccccc2)[C@@H]1CO | 1.08 ± 0.096 |  |
| O=C(Nc1cc(F)ccc1F)N1CC(=O)N2[C@@H](CO)[C@H](c3ccc(/C=C/c4ccccc4)cc3)[C@@H]2C1 | 1.08 ± 0.034 |  |
| CN1C(=O)c2cc(NC(=O)c3ccc(C(F)(F)F)cc3)ccc2OC[C@H]2O[C@H](CC(=O)NCc3ccc4c(c3)OCO4)CC[C@@H]21 | 0.963 ± 0.079 |  |
| C[C@@H]1CN([C@H](C)CO)C(=O)c2cccc(N(C)C)c2O[C@H]1CN(C)C(=O)Nc1ccc(F)cc1 | 1 ± 0.1 |  |

| SMILES | viability index [1] | viability index [2] |
| --- | --- | --- |
| C/C=C/c1ccc([C@H]2[C@@H](CO)N3CCCCN(S(=O)(=O)c4ccc(OC)cc4)C[C@H]23)cc1 | 0.951 ± 0.026 |  |
| O=C(C[C@@H]1CC[C@@H](NC(=O)C2CCOCC2)[C@@H](CO)O1)NCC1CCCCC1 | 1.13 ± 0.06 |  |
| COC(=O)C[C@@H]1CC[C@H]2[C@@H](COC[C@H](O)CN2S(=O)(=O)c2ccccc2OC)O1 | 1.06 ± 0.015 |  |
| O=C1C[C@H](c2ccccc2)C(=O)N[C@H](c2ccccc2)C/C=C\C[C@@H](c2ccccc2)N1 | 0.971 ± 0.049 |  |
| COc1ccc2c3c([nH]c2c1)[C@H](CO)N(Cc1nccs1)C[C@]31CCN(Cc2cccnc2)CC1 | 0.946 ± 0.081 |  |
| COc1cccc(-c2ccc([C@H]3[C@@H](CO)N4C(=O)CNC[C@@H]34)cc2)c1 | 1.05 ± 0.045 |  |
| C[C@H]1CN([C@@H](C)CO)C(=O)Cc2cc(NC(=O)CCC(F)(F)F)ccc2O[C@@H]1CN(C)CC1CC1 | 0.98 ± 0.017 |  |
| CC(C)NC(=O)N1[C@H](CO)[C@@H](c2ccccc2)[C@@H]1CN(C)C(=O)c1cccnc1 | 0.966 ± 0.068 |  |
| O=C(O)C[C@H]1C[C@@H]2c3cc(NC(=O)Cc4ccncc4)ccc3O[C@@H]2[C@H](CO)O1 | 1.05 ± 0.076 |  |
| CNC[C@@H]1Oc2c(N)cccc2C(=O)N([C@H](C)CO)C[C@@H]1C | 0.978 ± 0.067 |  |
| COc1ccc(NC(=O)N2C[C@@H](O)COC[C@@H]3O[C@@H](CC(=O)N4CCCCC4)CC[C@H]32)cc1 | 1.07 ± 0.068 |  |
| COc1ccccc1C#Cc1ccc([C@H]2[C@@H](C#N)N(C(=O)C3CCCC3)[C@H]2CO)cc1 |  | 0.583 ± 0.18 |
| COCC(=O)Nc1ccc2c(c1)[C@H]1C[C@H](CC(=O)N[C@H](C)c3ccccc3)O[C@H](CO)[C@H]1O2 | 1.091 ± 0.0092 |  |
| O=C(CC1CC1)N1CC(=O)N2[C@H](CO)[C@@H](c3ccc(/C=C/c4ccccc4)cc3)[C@@H]2C1 | 1.02 ± 0.029 |  |
| CN1CCN(C(=O)C[C@@H]2CC[C@H]3[C@@H](COc4ccc(NC(=O)C5CCOCC5)cc4C(=O)N3C)O2)CC1 | 1.09 ± 0.06 |  |
| C[C@H]1CN([C@@H](C)CO)C(=O)c2cc(/C=C/c3ccccc3)cnc2O[C@@H]1CN(C)C(=O)C1CCCCC1 |  | 0.643 ± 0.072 |
| N#C[C@@H]1[C@H](c2ccccc2-c2ccccc2F)[C@H](CO)N1C(=O)C1CCC1 | 1.07 ± 0.12 |  |
| C[C@H]1CN([C@@H](C)CO)C(=O)c2cc(NS(=O)(=O)c3ccc(F)cc3)ccc2O[C@@H]1CN(C)C(=O)Nc1ccccc1 | 1.11 ± 0.014 |  |
| Cc1noc(C)c1NC(=O)N(C)C[C@H]1OCc2cn(nn2)CCCC(=O)N([C@@H](C)CO)C[C@@H]1C | 1.03 ± 0.067 |  |
| O=C(C[C@@H]1CC[C@H]2[C@@H](COC[C@@H](O)CN2C(=O)c2ccncc2)O1)NCc1cc(F)cc(F)c1 | 0.964 ± 0.05 |  |
| Cn1cnc(S(=O)(=O)N2C[C@@H](O)COC[C@@H]3O[C@H](CC(=O)NCc4cccc(F)c4)CC[C@H]32)c1 | 1.067 ± 0.0054 |  |
| O=C(CC(F)(F)F)N1C[C@H]2[C@@H](c3ccccc31)[C@H](CO)N2CC1CCOCC1 | 0.9885 ± 0.0063 |  |
| CCCNC(=O)N1C[C@@H]2N[C@H](C1)[C@@H]2c1ccc(-c2ccccc2C)cc1 | 1.04 ± 0.055 |  |
| CCCNC(=O)C[C@@H]1CC[C@@H]2[C@@H](COc3ccc(NC(=O)CC)cc3C(=O)N2C)O1 | 1.12 ± 0.16 |  |
